Five compounds from ChEMBL document CHEMBL5543144, “Discovery of a Novel Potent Tetrazole Antifungal Candidate with High Selectivity and Broad Spectrum” (J Med Chem, 2024) can be followed below.

SMILES strings stand for the structures. pIC50: −log10 of the molar value. Values after ≈ are worked out from the molar mass of the structure shown. Where only a bound is given, the exact number is not on record here.

Among the targets are Cytochrome P450 2D6 (Homo sapiens, UniProt P10635); Cytochrome P450 2C19 (Homo sapiens, UniProt P33261); Cytochrome P450 2C9 (Homo sapiens, UniProt P11712).
The target of the next data set is T1, Cytochrome P450 1A2 (Homo sapiens, UniProt P05177).
T1 sequence (P05177 whole entry): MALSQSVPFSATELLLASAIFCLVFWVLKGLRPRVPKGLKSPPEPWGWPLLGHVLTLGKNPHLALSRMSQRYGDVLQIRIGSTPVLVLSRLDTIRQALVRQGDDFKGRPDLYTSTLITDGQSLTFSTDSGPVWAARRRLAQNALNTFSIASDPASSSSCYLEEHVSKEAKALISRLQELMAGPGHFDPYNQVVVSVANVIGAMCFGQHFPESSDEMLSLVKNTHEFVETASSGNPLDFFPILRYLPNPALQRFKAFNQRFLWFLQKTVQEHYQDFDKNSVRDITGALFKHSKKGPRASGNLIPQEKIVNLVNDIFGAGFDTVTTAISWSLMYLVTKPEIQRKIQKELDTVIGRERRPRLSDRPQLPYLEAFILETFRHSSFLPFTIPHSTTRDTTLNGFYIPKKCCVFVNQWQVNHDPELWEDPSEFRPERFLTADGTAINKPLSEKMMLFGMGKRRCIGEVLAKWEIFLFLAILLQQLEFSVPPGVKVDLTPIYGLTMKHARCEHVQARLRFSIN
Briefly: Inhibition of CYP1A2 in human liver microsomes using phenacetin as substrate in presence of NADPH by LC-MS/MS analysis. In general terms: Liver microsomes are a subcellular fraction often used to study metabolism.

Data set [1] is described as follows: Cytotoxicity against HUVEC cells assessed as inhibition of cell growth incubated for 24 hrs by MTT assay. In kind it is toxicity, cell-based. Particulars: human. In general terms: Tetrazolium dyes change colour on reduction, which living cells bring about.
The next data set is described as follows: in vitro. The conditions noted are these: human, caco-2.
The target of data set [2] is Voltage-gated inwardly rectifying potassium channel KCNH2 (Homo sapiens, UniProt Q12809).
Voltage-gated inwardly rectifying potassium channel KCNH2, sequence (Q12809 whole entry): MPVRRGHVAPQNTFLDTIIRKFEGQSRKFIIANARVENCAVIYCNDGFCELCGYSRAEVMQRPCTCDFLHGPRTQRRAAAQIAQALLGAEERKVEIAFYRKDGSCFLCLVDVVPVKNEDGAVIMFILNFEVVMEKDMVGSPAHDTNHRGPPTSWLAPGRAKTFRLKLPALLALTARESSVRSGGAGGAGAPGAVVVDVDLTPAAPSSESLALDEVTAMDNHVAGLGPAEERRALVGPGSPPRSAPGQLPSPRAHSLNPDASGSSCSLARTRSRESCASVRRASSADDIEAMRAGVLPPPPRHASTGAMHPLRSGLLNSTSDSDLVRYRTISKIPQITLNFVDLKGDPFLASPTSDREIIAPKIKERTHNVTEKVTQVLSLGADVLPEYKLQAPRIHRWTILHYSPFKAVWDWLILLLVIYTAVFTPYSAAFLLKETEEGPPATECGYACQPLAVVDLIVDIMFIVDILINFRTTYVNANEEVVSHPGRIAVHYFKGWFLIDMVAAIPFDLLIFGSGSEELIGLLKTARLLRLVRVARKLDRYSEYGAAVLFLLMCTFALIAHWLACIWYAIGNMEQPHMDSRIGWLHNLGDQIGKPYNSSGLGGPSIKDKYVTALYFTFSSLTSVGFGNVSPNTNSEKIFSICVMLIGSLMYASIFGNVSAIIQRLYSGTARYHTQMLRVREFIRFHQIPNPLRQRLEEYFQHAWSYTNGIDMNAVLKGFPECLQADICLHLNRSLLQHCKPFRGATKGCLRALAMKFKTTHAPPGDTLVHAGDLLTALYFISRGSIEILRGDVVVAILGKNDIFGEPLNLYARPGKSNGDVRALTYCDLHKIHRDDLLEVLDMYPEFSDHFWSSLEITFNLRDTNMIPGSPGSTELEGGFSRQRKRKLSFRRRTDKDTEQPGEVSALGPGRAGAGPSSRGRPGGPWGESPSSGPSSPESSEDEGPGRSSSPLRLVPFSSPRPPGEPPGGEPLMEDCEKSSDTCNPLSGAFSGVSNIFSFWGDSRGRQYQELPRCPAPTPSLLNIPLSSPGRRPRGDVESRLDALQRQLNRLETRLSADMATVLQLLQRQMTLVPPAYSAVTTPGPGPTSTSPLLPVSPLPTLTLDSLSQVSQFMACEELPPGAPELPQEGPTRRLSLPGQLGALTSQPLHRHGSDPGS

Cytochrome P450 2C9, sequence (P11712 whole entry): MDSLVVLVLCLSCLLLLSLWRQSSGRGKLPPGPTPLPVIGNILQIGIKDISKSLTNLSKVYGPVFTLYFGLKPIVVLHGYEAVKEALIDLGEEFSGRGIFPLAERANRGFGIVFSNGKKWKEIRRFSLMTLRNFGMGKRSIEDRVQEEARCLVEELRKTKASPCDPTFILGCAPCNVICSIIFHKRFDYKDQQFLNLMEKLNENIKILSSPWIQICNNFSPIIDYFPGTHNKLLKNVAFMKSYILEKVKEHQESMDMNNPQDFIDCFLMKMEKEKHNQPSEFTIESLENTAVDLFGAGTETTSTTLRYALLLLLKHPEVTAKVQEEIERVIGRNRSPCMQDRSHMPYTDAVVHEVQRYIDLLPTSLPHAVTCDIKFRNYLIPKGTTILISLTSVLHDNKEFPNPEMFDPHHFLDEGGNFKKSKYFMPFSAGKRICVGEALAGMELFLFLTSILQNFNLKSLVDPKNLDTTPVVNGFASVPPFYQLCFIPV
Cytochrome P450 2C19, sequence (P33261 whole entry): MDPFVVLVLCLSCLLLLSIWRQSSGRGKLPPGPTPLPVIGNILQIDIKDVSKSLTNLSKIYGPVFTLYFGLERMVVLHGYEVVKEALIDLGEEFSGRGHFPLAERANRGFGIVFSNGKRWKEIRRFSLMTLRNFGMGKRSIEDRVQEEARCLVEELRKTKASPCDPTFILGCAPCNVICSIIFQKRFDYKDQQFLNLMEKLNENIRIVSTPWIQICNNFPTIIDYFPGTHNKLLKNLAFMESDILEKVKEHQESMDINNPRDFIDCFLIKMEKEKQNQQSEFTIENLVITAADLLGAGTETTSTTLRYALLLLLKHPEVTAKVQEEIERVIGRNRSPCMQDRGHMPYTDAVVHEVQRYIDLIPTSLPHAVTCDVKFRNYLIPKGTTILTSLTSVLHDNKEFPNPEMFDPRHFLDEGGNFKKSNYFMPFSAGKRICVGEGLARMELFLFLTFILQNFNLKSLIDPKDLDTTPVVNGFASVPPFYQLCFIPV
Cytochrome P450 2D6, sequence (P10635 whole entry): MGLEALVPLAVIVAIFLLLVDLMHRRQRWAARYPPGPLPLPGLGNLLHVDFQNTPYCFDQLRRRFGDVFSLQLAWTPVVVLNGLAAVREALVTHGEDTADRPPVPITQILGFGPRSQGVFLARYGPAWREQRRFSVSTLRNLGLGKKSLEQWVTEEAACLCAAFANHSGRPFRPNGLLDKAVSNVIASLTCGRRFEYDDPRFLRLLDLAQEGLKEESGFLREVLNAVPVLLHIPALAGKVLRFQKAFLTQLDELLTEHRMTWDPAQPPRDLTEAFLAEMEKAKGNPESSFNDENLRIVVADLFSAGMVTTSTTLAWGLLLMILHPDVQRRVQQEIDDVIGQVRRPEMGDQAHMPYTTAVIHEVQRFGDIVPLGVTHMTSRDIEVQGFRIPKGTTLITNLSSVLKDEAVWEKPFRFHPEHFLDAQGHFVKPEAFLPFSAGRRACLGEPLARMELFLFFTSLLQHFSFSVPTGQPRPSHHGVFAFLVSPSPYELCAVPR

For the compound `C[C@@H](n1ncc2cc(Cl)ccc2c1=O)[C@](O)(Cn1cnnn1)c1ccc(F)cc1F`, the pIC50 on Cytochrome P450 2D6 was 4.74; against Cytochrome P450 2C19 it was 4.98; at Cytochrome P450 1A2 it was 4.32; at Cytochrome P450 2C9, 4.72.

Consider `C[C@@H](n1cnc2cc(Cl)ccc2c1=O)[C@](O)(Cn1cnnn1)c1ccc(F)cc1F`, for which the pIC50 against Cytochrome P450 2D6 is 4.79; at Cytochrome P450 2C19 it was 4.92; on Cytochrome P450 1A2 it was 4.29; against Cytochrome P450 2C9, 4.82.

With `C[C@@H](n1ccc2cc(Cl)ccc2c1=O)[C@](O)(Cn1cncn1)c1ccc(F)cc1F`, the pIC50 was 4.16 at Cytochrome P450 2D6, 5.16 at Cytochrome P450 2C19, 4.11 on Cytochrome P450 1A2 and 5.03 against Cytochrome P450 2C9.

For `C[C@@H](n1ncc2cc(Cl)ccc2c1=O)[C@](O)(Cn1cncn1)c1ccc(F)cc1F`, the pIC50 against Cytochrome P450 2D6 is less than 4.00; at Cytochrome P450 2C19, 5.10; at Cytochrome P450 1A2, less than 4.00; against Cytochrome P450 2C9 it was 4.97.

Take `C[C@@H](n1ccc2cc(Cl)ccc2c1=O)[C@](O)(Cn1cnnn1)c1ccc(F)cc1F`: the pIC50 at Cytochrome P450 2D6 is 4.84; on Cytochrome P450 2C19, 5.28; on Cytochrome P450 1A2, 4.61; in data set [2], 4.80; against Cytochrome P450 2C9, 5.13. The results for the IC50 at 24 h (in data set [1]; in “in vitro”) were greater than 64 µg/mL and 64 µg/mL (≈ 148 µM), respectively.

In general, pIC50 refers to −log10 of the IC50, conventionally taken in molar units. As usually defined, the IC50 is the concentration needed to halve the response being measured.
